In the RNAGym collection of RNA variant scans (doi:10.7554/elife.90254):
The source gives no read counts; variants with many changes may rest on few reads.

B1: LINE1-mini (parent)
chain: GGCAGAGCUCAACACAGCGUGGCAAAGUGGCUGUGGCUAGACUGCC

Variants of: B1
Experiment: self-cleavage, relative activity (ratio to wild type); higher = more cleavage; in vitro, sequencing; the parent is a self-cleaving ribozyme

Row | Variant | self-cleavage
1 | A11G G44U C45G | 0
2 | A11U U32C G40A | 0.02
3 | A11G U28G C46A | 0.03
4 | A11U C15U G27A | 0.47
5 | A11U C13G C23A C46A | 0.04
6 | A12C C18U G27C U34G U43G | 0
7 | A11U G17A C46A | 0
8 | A11U C13U A14U U34G G36C U43C | 0.01
9 | A12C A24U A39C | 0.02
10 | A11U A12G C15U G22U U38A | 0.01
11 | A11G U32G G35U | 0.02
12 | A11U C13U C37U A39G G44A | 0.02
13 | A12C C13G C23G G30C | 0.01
14 | A11U G21A C42G | 0
15 | A11U U20C G29A C31G G44U | 0.02
16 | A11U A14C G30U | 0.04
17 | A12C A14C U28A C31G G36C | 0
18 | A11U C18G G33U C46A | 0.04
19 | A11U G27A U38C G40C G44A | 0.01
20 | A11U A12C C37U | 0.01
21 | A12C A16C A24G G44U | 0

Row | Variant | self-cleavage
22 | A11G U43A G44C C46U | 0
23 | A11U G21C C23U G29C G30C G40U | 0
24 | A11U C13A G17U C31A C37G C42A | 0.01
25 | A12C A39U A41G | 0.05
26 | A12C C23U G29U A39U A41C | 0.01
27 | A11U G19U C45A C46U | 0.03
28 | A11U A16G G22C A25U G30U | 0.01
29 | A11U C15U G19C C45A | 0.01
30 | A11U C13G G22U C31A C45A C46A | 0
31 | A12C A16G U32C C45A | 0
32 | A11U C31A G36A C37G | 0.02
33 | A12C C18A G19C C23A A39U | 0.02
34 | A11U G17A G29U | 0.01
35 | A12C C31G A39C | 0.02
36 | A12C C13U C23U | 0.02
37 | A11U G17A G22C A25C G27A | 0.02
38 | A11U A16C A26C G40C | 0.01
39 | A11U G19U G21C G27C | 0.02
40 | A11U C15U C18U G22C G29A | 0.07
41 | A11U G35C U43A C45A | 0
42 | A12C C13A C23U A26U | 0.01

Row | Variant | self-cleavage
43 | A11U A24G G27A | 0.24
44 | A11U G19U C42G | 0.03
45 | A11U G36A C46G | 0
46 | A12C C13G C15U G33C | 0.01
47 | A12C C23U A26G G40U | 0.12
48 | A12C A24C G33U A41C | 0
49 | A12C C18A U34G G44C | 0.01
50 | A11U A12C C42U | 0.03
51 | A11U C13A G17U U43A | 0.01
52 | A11G U20A G27C G30U | 0.02
53 | A12C C13A A14G G40U | 0
54 | A12C A16U G44C | 0.07
55 | A12C A24G U28G | 0.05
56 | A11U A26U U34A C45A | 0
57 | A11U G17C A24U C42U U43C | 0.04
58 | A12C C18U U34A C42U G44U | 0
59 | A12C A25U U32C G36C C46A | 0.01
60 | A11U C15U U43A G44U C45A | 0.01
61 | A11G U28A G30U | 0.03
62 | A11G U28C U38G C46A | 0
63 | A12C A25U C46A | 0.03

Row | Variant | self-cleavage
64 | A12C A25U C46G | 0
65 | A12C C31A U38A | 0
66 | A11U C13G G35C | 0.01
67 | A11G G35U G36C | 0
68 | A11U C13U C23A | 0.03
69 | A12C A16U A24C G44A | 0
70 | A11U A16C C23U | 0.01
71 | A12C C13U A24G | 0
72 | A11U C15A G21U G30U | 0.01
73 | A11U C31A C45A | 0.03
74 | A12C C13A A24C A39G | 0.05
75 | A11U A14C G22U | 0.03
76 | A12C A16C C46A | 0.01
77 | A11G U28G G30C G40A | 0.01
78 | A11U U20G C42G | 0
79 | A11U C13A A16C C31A U43A | 0.02
80 | A11G U20A G22A G27C | 0.01
81 | A11U U32A U43A | 0.03
82 | A11U C18A A39U A41G | 0.01
83 | A11U C13A G22A A24U | 0.01
84 | A11U G29A C42A | 0.02
